Data published in article PMC10668032.
Some of the results follow. At the low end of the ranking the order means little.

target: SIX1 homeodomain (reference allele) (UniProt Q15475); assay: universal protein binding microarray; conditions: Universal all-10-mer PBM (8x60K, AMADID 030236), 300 nM GST-tagged protein, Alexa Fluor 488 anti-GST; buffer, salt, pH and temperature not stated; high values mean tight binding; most listed sequences are background and not binding sites; double strand, one strand shown

Row | Sequence | binding signal [E-score]
1 | CCCCTACC | 0.0656
2 | CCTCTTTC | -0.159
3 | ATAAAAAA | -0.172
4 | CACAAATC | -0.161
5 | CTGACCCC | 0.012
6 | GAAATCCC | -0.0215
7 | AGAGAGTA | -0.102
8 | AGCGTCGC | -0.24
9 | GGGTGGAA | -0.0812
10 | CGCGCGGA | -0.0434
11 | CCCTTTAG | -0.165
12 | AAATTTCT | -0.387
13 | CCACCCAA | -0.139
14 | ACGACTGG | -0.146
15 | AACAGTCT | -0.202
16 | CATAATGG | -0.0983
17 | AGCCGTTC | -0.0457
18 | AAGCCACA | -0.242
19 | GCCTATTA | 0.0662
20 | ATACATAT | 0.354
21 | CGAACTCG | -0.205
22 | ATAATCAG | 0.179
23 | ACTTAGTC | -0.301
24 | ACAGAAGG | -0.0876
25 | CAGATTAA | 0.217

Row | Sequence | binding signal [E-score]
26 | GTGGCCAA | -0.194
27 | AGGTGGTG | -0.102
28 | AACTATAG | -0.0606
29 | AGTGGCGC | -0.19
30 | ACGGCACG | -0.081
31 | ATACCCAG | 0.382
32 | CATAATCC | 0.3
33 | AGGTACGA | 0.0442
34 | AAAGGAAA | -0.208
35 | CCTTCGAC | -0.126
36 | ATCCCCAA | 0.294
37 | ACGGCAAC | -0.0767
38 | ACATGCAT | -0.0641
39 | GTGGGAAA | -0.102
40 | ATATGGAG | 0.253
41 | GACATTTA | -0.264
42 | ACATTTAT | -0.224
43 | CCCGAGTC | 0.189
44 | CAGTAAGA | 0.0974
45 | GGTGTTGA | 0.258
46 | GCGTCAAC | -0.231
47 | CTCCTCAC | -0.167
48 | AGTTGTCC | -0.194
49 | ACTATTAT | 0.0434
50 | ACGCATCG | 0.141

Row | Sequence | binding signal [E-score]
51 | ATGGTAGA | -0.0112
52 | CGCCAGCG | 0.0107
53 | GTGCGCGA | -0.182
54 | CAGCATAG | -0.0445
55 | GAAGCACA | -0.247
56 | CAGTGGAA | -0.183
57 | GACTGCTA | -0.317
58 | ATGCTGAA | -0.215
59 | CGTACGTC | -0.171
60 | AGTGCGCA | -0.212
61 | ATGTTTGG | -0.107
62 | TGCGAACA | -0.12
63 | GGCTTGTA | -0.144
64 | GGAGATAC | 0.41
65 | CGGGACAG | -0.0787
66 | ATAACCTG | 0.0653
67 | CTTAAGGC | -0.141
68 | AAACAAAG | -0.175
69 | ATATCCGA | 0.429
70 | AGACCGAG | -0.0134
71 | CGCCATAC | 0.0225
72 | GTGAGCAC | -0.0873
73 | CAAGTGCG | -0.0204
74 | AAGGGGAT | 0.323
75 | ACTGAACC | -0.00103

Row | Sequence | binding signal [E-score]
76 | AGAGATAT | 0.335
77 | CTTAAGAA | -0.187
78 | CTTGCTGC | -0.182
79 | CCTCCCAA | -0.166
80 | TAAGCGGA | -0.041
81 | AATCTGTA | 0.0595
82 | CTGTTGCC | -0.293
83 | ATTCTGTC | 0.0206
84 | AAGCTTTA | -0.129
85 | GGAAAACA | -0.102
86 | ATATCCAG | 0.373
87 | GCACTAAC | -0.214
88 | TAATGGTA | 0.141
89 | CACGAGGA | 0.037
90 | ATCGTCAT | 0.22
91 | CGTCGAAC | -0.28
92 | GCAGTACC | 0.0127
93 | GCGGAACA | -0.16
94 | TAACAGAA | -0.235
95 | AGTAGGAA | -0.161
96 | CGCTTACG | -0.159
97 | CGTCCGGA | 0.0517
98 | CACAGTAG | -0.15
99 | AGGTCAGG | -0.103
100 | AGAGGGTA | 0.267

Row | Sequence | binding signal [E-score]
101 | AATCGCCC | -0.112
102 | AACGATCA | 0.207
103 | AACTGTGT | -0.145
104 | GAAGCTGA | 0.0247
105 | CTTAGTAA | -0.0628
106 | CGGTTTAG | 0.0351
107 | CCACTCGG | -0.0298
108 | CAAGGATA | 0.342
109 | AGAATCTA | -0.00801
110 | GGAAGTCA | -0.18
111 | CTCGTGCC | -0.155
112 | CGTAAAAG | -0.225
113 | AAGCTTAT | 0.0804
114 | GACGCTCA | -0.139
115 | GTTGGTAA | 0.00492
116 | CCCCGTAA | -0.0525
117 | ATTTGCGA | -0.136
118 | TCGGCGAA | 0.115
119 | AAAAAGAG | -0.181
120 | CGGATGAC | 0.173
121 | ACGCGGCG | -0.0208
122 | ATCGGTGC | 0.194
123 | GAATGTGA | -0.143
124 | CGGCTTTA | -0.0572
125 | CGTGTAAC | 0.0592

Row | Sequence | binding signal [E-score]
126 | GTCGAAAC | 0.139
127 | AGGGAGGA | 0.0332
128 | CGGAAAGA | -0.0696
129 | AGGTGCAG | -0.142
130 | GAGGATTA | 0.118
131 | GATATACA | 0.384
132 | CGGTACGC | -0.0526
133 | ATGAGTGG | 0.0241
134 | AACTTCCA | -0.149
135 | CAAGCGTG | -0.0701
136 | CCATATAC | 0.29
137 | AGTGGATA | 0.338
138 | ATCCACTA | 0.263
139 | ACTGGATC | 0.33
140 | CTCCTGGA | -0.14
141 | GAACTCGC | -0.152
142 | GCGTTCAC | -0.168
143 | AGTTCTCC | -0.0263
144 | CATCGGTA | 0.086
145 | ACGTATCA | 0.474
146 | CAGTCGAG | -0.173
147 | AATTTGTA | -0.0679
148 | AAATCTGG | -0.105
149 | GGGCCATA | -0.0361
150 | CTCAGGAG | -0.154

Row | Sequence | binding signal [E-score]
151 | AGAACAGG | -0.059
152 | CGCAGCCG | -0.159
153 | CTCTAGGC | -0.114
154 | GCGCAGCC | -0.252
155 | TGCAGCAA | 0.0497
156 | CTCCCCCA | -0.11
157 | GCGTAAGC | -0.134
158 | CACCACGA | 0.102
159 | ACAAAATA | -0.179
160 | ATTGAAAT | -0.119
161 | CATGAAAA | -0.264
162 | CAATCTCC | 0.0442
163 | GCGTATTA | 0.161
164 | CAGGATAC | 0.365
165 | GGGCTAGA | 0.209
166 | ACAAATGT | -0.304
167 | GGTTAGCA | -0.232
168 | GCGTGAAC | -0.108
169 | AGCGGTAT | 0.343
170 | AAATCGGC | -0.173
171 | ATTTAAGC | -0.136
172 | GAATCTAC | -0.112
